Laboratory results published in the supplement of paper PMC11741623.
Some of the results follow. Interaction screen of human proteins with wild-type SARS-CoV-2 proteins by split-DHFR complementation in yeast, 1 µg/mL methotrexate. Value = fitness of the pair (three or more lineages) minus that of the viral protein without a human partner, on a scale set by negative (0) and fused positive (1) controls, mean of up to three cultures; higher = more likely to interact. Active = false discovery rate below 0.05 (one-sided t-test) in at least one culture. Nearly all pairs are not hits, and differences among them are mostly noise (correlation between cultures about 0.3); most hits were seen in one culture only. Human sequences are the Swiss-Prot entries looked up by gene name; the clone may be another isoform. NSP2 values were corrected by the authors for a growth advantage. Listed are human proteins with a hit and a random twelfth of the others.

Key:
Assay in all cases: yeast fitness gain over the viral ORF with no human partner (scaled fitness); higher = more likely to interact
SARS-CoV-2 M = target: SARS-CoV-2 M
Method: (§1)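 Split mouse DHFR complementation in pooled diploid yeast: human ORFeome clones carry one fragment and viral ORFs the other; barcoded lineages compete in 1 µg/mL methotrexate and fitness is read by barcode sequencing in up to three cultures.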

SARS-CoV-2 NSP10 = target: SARS-CoV-2 NSP10
Method: as §1

SARS-CoV-2 NSP12 = target: SARS-CoV-2 NSP12
Method: as §1

SARS-CoV-2 NSP13 = target: SARS-CoV-2 NSP13
Method: as §1

SARS-CoV-2 NSP2 = target: SARS-CoV-2 NSP2
Method: as §1

SARS-CoV-2 ORF3B = target: SARS-CoV-2 ORF3B
Method: as §1

SARS-CoV-2 ORF6 = target: SARS-CoV-2 ORF6
Method: as §1

SARS-CoV-2 ORF8 = target: SARS-CoV-2 ORF8
Method: as §1

SARS-CoV-2 ORF9B = target: SARS-CoV-2 ORF9B
Method: as §1

SARS-CoV-2 N = target: SARS-CoV-2 N
Method: as §1

SARS-CoV-2 NSP1 = target: SARS-CoV-2 NSP1
Method: as §1

SARS-CoV-2 NSP15 = target: SARS-CoV-2 NSP15
Method: as §1

SARS-CoV-2 NSP16 = target: SARS-CoV-2 NSP16
Method: as §1

SARS-CoV-2 NSP4 = target: SARS-CoV-2 NSP4
Method: as §1

SARS-CoV-2 NSP5 = target: SARS-CoV-2 NSP5
Method: as §1

SARS-CoV-2 NSP6 = target: SARS-CoV-2 NSP6
Method: as §1

SARS-CoV-2 NSP7 = target: SARS-CoV-2 NSP7
Method: as §1

SARS-CoV-2 NSP8 = target: SARS-CoV-2 NSP8
Method: as §1

SARS-CoV-2 NSP9 = target: SARS-CoV-2 NSP9
Method: as §1

SARS-CoV-2 ORF10 = target: SARS-CoV-2 ORF10
Method: as §1

SARS-CoV-2 ORF7A = target: SARS-CoV-2 ORF7A
Method: as §1

SARS-CoV-2 ORF7B = target: SARS-CoV-2 ORF7B
Method: as §1

[1] = target: SARS-CoV-2 ORF9Bwu (the 73-codon ORF)
Method: as §1

SARS-CoV-2 S = target: SARS-CoV-2 S
Method: as §1

Measured: yeast fitness gain

B1: PLSCR1, O15162 (protein)
chain: MDKQNSQMNASHPETNLPVGYPPQYPPTAFQGPPGYSGYPGPQVSYPPPPAGHSGPGPAGFPVPNQPVYNQPVYNQPVGAAGVPWMPAPQPPLNCPPGLEYLSQIDQILIHQQIELLEVLTGFETNNKYEIKNSFGQRVYFAAEDTDCCTRNCCGPSRPFTLRIIDNMGQEVITLERPLRCSSCCCPCCLQEIEIQAPPGVPIGYVIQTWHPCLPKFTIQNEKREDVLKISGPCVVCSCCGDVDFEIKSLDEQCVVGKISKHWTGILREAFTDADNFGIQFPLDLDVKMKAVMIGACFLIDFMFFESTGSQEQKSGVW
inactive: SARS-CoV-2 M 0.0522 | SARS-CoV-2 NSP10 = -0.0909 | SARS-CoV-2 NSP12 = -0.236 | SARS-CoV-2 NSP13 = 0.0473 | SARS-CoV-2 NSP2 = -0.152 | SARS-CoV-2 ORF3B 0.0158 | SARS-CoV-2 ORF6 = 0.0455 | SARS-CoV-2 ORF8 = -0.00231 | SARS-CoV-2 ORF9B -0.000879

B2: UQCR10, Q9UDW1 (protein)
chain: MAAATLTSKLYSLLFRRTSTFALTIIVGVMFFERAFDQGADAIYDHINEGKLWKHIKHKYENK
inactive: SARS-CoV-2 M 0.0268 | SARS-CoV-2 N 0.172 | SARS-CoV-2 NSP1 = 0.037 | SARS-CoV-2 NSP10 = -0.0215 | SARS-CoV-2 NSP12 = -0.0306 | SARS-CoV-2 NSP13 = 0.00656 | SARS-CoV-2 NSP15 = 0.0188 | SARS-CoV-2 NSP16 = -0.138 | SARS-CoV-2 NSP2 = -0.0573 | SARS-CoV-2 NSP4 = -0.0594 | SARS-CoV-2 NSP5 = -0.137 | SARS-CoV-2 NSP6 = -0.0399 | SARS-CoV-2 NSP7 = 0.0825 | SARS-CoV-2 NSP8 = -0.0482 | SARS-CoV-2 NSP9 = 0.0139 | SARS-CoV-2 ORF10 = 0.00558 | SARS-CoV-2 ORF3B 0.000584 | SARS-CoV-2 ORF6 = -0.0159 | SARS-CoV-2 ORF7A 0.0329 | SARS-CoV-2 ORF7B -0.00665 | SARS-CoV-2 ORF8 = -0.00605 | SARS-CoV-2 ORF9B -0.0272 | [1] -0.00969 | SARS-CoV-2 S 0.084

B3: FMO1, Q01740 (protein)
chain: MAKRVAIVGAGVSGLASIKCCLEEGLEPTCFERSDDLGGLWRFTEHVEEGRASLYKSVVSNSCKEMSCYSDFPFPEDYPNYVPNSQFLEYLKMYANHFDLLKHIQFKTKVCSVTKCSDSAVSGQWEVVTMHEEKQESAIFDAVMVCTGFLTNPYLPLDSFPGINAFKGQYFHSRQYKHPDIFKDKRVLVIGMGNSGTDIAVEASHLAEKVFLSTTGGGWVISRIFDSGYPWDMVFMTRFQNMLRNSLPTPIVTWLMERKINNWLNHANYGLIPEDRTQLKEFVLNDELPGRIITGKVFIRPSIKEVKENSVIFNNTSKEEPIDIIVFATGYTFAFPFLDESVVKVEDGQASLYKYIFPAHLQKPTLAIIGLIKPLGSMIPTGETQARWAVRVLKGVNKLPPPSVMIEEINARKENKPSWFGLCYCKALQSDYITYIDELLTYINAKPNLFSMLLTDPHLALTVFFGPCSPYQFRLTGPGKWEGARNAIMTQWDRTFKVIKARVVQESPSPFESFLKVFSFLALLVAIFLIFL
inactive: SARS-CoV-2 M 0.119 | SARS-CoV-2 NSP10 = 0.0362 | SARS-CoV-2 NSP12 = -0.369 | SARS-CoV-2 NSP13 = -0.231 | SARS-CoV-2 NSP2 = -0.0509 | SARS-CoV-2 NSP9 = -0.11 | SARS-CoV-2 ORF3B -0.0252 | SARS-CoV-2 ORF6 = -0.243 | SARS-CoV-2 ORF8 = 0.0115 | SARS-CoV-2 S -0.0654

B4: TNP1, P09430 (protein)
chain: MSTSRKLKSHGMRRSKSRSPHKGVKRGGSKRKYRKGNLKSRKRGDDANRNYRSHL
inactive: SARS-CoV-2 M 0.00736 | SARS-CoV-2 NSP1 = 0.0786 | SARS-CoV-2 NSP10 = 0.0424 | SARS-CoV-2 NSP12 = 0.033 | SARS-CoV-2 NSP13 = 0.00908 | SARS-CoV-2 NSP15 = 0.0725 | SARS-CoV-2 NSP2 = -0.0749 | SARS-CoV-2 NSP4 = -0.123 | SARS-CoV-2 NSP5 = -0.0973 | SARS-CoV-2 NSP6 = 0.00389 | SARS-CoV-2 NSP7 = 0.0101 | SARS-CoV-2 NSP8 = 0.0302 | SARS-CoV-2 ORF10 = 0.0925 | SARS-CoV-2 ORF3B -0.0157 | SARS-CoV-2 ORF6 = 0.0715 | SARS-CoV-2 ORF7A -0.148 | SARS-CoV-2 ORF7B -0.0094 | SARS-CoV-2 ORF8 = -0.0217 | SARS-CoV-2 ORF9B 0.0584 | [1] 0.0578 | SARS-CoV-2 S -0.0169
